About 31,000 (8.9%) of roughly 350,000 compounds were called active. The inconclusive results got no clear call from the source; some entries with a clear call stand among them for comparison. Calls follow the shape of the dose curve; as a rule, active = well fitted inhibition curve with a large enough effect; inconclusive = small, poorly fitted or top-dose-only effect; inactive = no such curve, though single readings can be large or run the other way. Potencies of inconclusive entries are doubtful fits and often do not repeat.
The compounds below were run against Histone-lysine N-methyltransferase EHMT2 (Homo sapiens) (UniProt Q96KQ7) (assay: qHTS Assay for Inhibitors of Histone Lysine Methyltransferase G9a). Conditions: G9a H3K9 monomethylation, AlphaScreen, 2 h; activity, negative = inhibition: at 59 µM (top of the series) unless noted.
UniProt Q96KQ7, sequence (Q96KQ7 whole entry, looked up): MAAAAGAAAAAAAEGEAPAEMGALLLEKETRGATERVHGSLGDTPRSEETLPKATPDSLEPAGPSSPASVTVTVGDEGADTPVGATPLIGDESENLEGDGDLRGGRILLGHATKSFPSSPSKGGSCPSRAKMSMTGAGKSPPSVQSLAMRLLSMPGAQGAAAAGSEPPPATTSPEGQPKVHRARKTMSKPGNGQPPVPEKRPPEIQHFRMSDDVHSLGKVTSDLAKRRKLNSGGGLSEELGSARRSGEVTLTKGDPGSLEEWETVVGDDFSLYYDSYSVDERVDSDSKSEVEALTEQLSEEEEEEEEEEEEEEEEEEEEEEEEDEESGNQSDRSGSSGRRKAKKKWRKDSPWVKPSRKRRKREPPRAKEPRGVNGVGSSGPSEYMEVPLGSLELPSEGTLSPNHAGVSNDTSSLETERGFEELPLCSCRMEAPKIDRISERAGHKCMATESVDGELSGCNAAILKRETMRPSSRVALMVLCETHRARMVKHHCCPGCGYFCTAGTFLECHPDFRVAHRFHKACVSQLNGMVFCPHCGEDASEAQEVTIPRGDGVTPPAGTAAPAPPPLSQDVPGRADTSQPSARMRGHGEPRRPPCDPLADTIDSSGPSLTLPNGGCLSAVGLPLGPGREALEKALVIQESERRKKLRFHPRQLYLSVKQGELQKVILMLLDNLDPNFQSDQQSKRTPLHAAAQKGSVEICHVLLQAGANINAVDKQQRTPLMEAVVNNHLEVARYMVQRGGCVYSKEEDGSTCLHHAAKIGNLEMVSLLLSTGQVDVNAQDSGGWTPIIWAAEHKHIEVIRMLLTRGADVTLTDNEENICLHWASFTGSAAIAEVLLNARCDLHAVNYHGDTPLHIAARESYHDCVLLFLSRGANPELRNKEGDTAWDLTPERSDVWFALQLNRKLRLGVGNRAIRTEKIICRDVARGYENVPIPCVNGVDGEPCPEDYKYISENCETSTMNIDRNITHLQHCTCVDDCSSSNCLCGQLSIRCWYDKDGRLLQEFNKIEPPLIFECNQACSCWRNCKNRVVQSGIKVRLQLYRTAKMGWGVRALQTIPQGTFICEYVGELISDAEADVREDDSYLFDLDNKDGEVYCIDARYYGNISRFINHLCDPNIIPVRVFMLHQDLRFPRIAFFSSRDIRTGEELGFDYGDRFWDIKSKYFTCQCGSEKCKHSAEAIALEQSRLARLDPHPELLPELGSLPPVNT
Outline: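 Enzyme 20 nM + cpd, 15 min RT; add b-H3K9 pep 500 nM / SAM 20 uM; 2 h RT; anti-H3K9me1 Ab 0.5 ug/mL + SA donor / anti-rabbit acceptor beads 20 ug/mL each, 10 min; AlphaScreen read.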
`Cc1cc(C(=O)NC(=S)Nc2cccc(C(=O)O)c2C)ccc1[N+](=O)[O-]` was tested, and the Potency was inconclusive: 50.1 µM [inhibitor, partial curve, poor fit].
For `Cc1ccc2cccnc2c1NC(=S)NC(=O)c1ccccc1`, the activity, negative = inhibition was inconclusive: -93.8% [inhibitor] [at 12.7 µM].
For `O=C(c1cc(-c2ccco2)on1)N1CCN(c2ccccc2)CC1`, the Potency was inconclusive: 28.2 µM [inhibitor, single point].
For `Cc1ccc(NC(=O)COC(=O)CCc2c[nH]c(=O)[nH]2)cc1`, the activity, negative = inhibition was inconclusive: -80.5% [inhibitor].
In the case of `Fc1ccc(C(Nc2ccc(Cl)c(C(F)(F)F)c2)c2nnc(-c3ccccc3)o2)cc1` (stereo unspecified), the Potency is reported as “inactive”.
In the case of `CCOC(=O)C(CC)Sc1ccc2nnc(CCNS(=O)(=O)c3ccccc3)n2n1` (stereo unspecified), the Potency is reported as inconclusive: 56.2 µM [inhibitor, partial curve, poor fit].
In the case of `COc1ccc(N2CCN(C(=O)COC(=O)c3oc4ccccc4c3C)CC2)cc1`, the Potency is reported as inconclusive: 2.24 µM [inhibitor, partial curve, poor fit].
`Cc1nnn(C23CC4CC(CC(CC(=O)Nc5ccc(C)c(C)c5)(C4)C2)C3)n1` was tested, and the Potency was inconclusive: 1.26 µM [inhibitor, full curve].
In the case of `COc1cccc(OCCCCCN2CCOCC2)c1`, the Potency is reported as “inactive”.
In the case of `CCN(Cc1ccccc1)S(=O)(=O)c1ccc(S(=O)(=O)N(Cc2cccc(OC)c2)CC2CCCO2)cc1` (stereo unspecified), the Potency is reported as inconclusive: 28.2 µM [inhibitor, single point].
With `O=C(O)C1CCCCC1C(=O)Nc1ccc(F)c(F)c1` (stereo unspecified) the Potency was inconclusive: 39.8 µM [inhibitor, partial curve, poor fit].
For `C=CCc1ccccc1OCC(=O)OCCNC(=O)c1cccnc1`, the Potency was inconclusive: 44.7 µM [inhibitor, partial curve, poor fit].
For `Cc1onc(-c2ccccc2Cl)c1C(=O)Nc1ccc(-n2nncc2C(C)(C)C)cc1`, the Potency was “inactive”.
With `COc1cc(-c2noc(-c3ccc(N4CCOCC4)c([N+](=O)[O-])c3)n2)cc(OC)c1OC` the Potency was inconclusive: 25.1 µM [inhibitor, partial curve, poor fit].
In the case of `CCC(NC(=O)c1[nH]c(C)c(C(C)=O)c1C)c1ccc(Br)cc1` (stereo unspecified), the Potency is reported as inconclusive: 100 µM [inhibitor, single point].
`Cc1cc(C)cc(NC(=O)C(=O)NCCc2c[nH]c3ccccc23)c1` was tested, and the Potency was inconclusive: 44.7 µM [inhibitor, partial curve].
For `COc1ccc(-c2cnnc(N/N=C/c3ccc(O)c(O)c3)n2)cc1`, the Potency was “inactive”.
With `O=C(NCc1ccccc1)C1CCCN(C(=O)c2ccc(F)cc2)C1` (stereo unspecified) the Potency was inconclusive: 79.4 µM [inhibitor, partial curve, poor fit].
`CCN(CCCNC(=O)CSc1cc(=O)n(C)c2cc(Cl)ccc12)c1cccc(C)c1` was tested, and the Potency was active: 17.8 µM.
`Cc1c2cnn(-c3ccccc3)c(=O)c2c(C)n1CC(=O)N1CCN(c2ccc(F)cc2)CC1` was tested, and the Potency was inconclusive: 31.6 µM [inhibitor, partial curve, poor fit].
In the case of `Cc1[nH]c2ccc(F)cc2c(=O)c1SC(F)(F)C(F)C(F)(F)F` (stereo unspecified), the Potency is reported as active: 31.6 µM.
With `CC(C)(C)NC(=O)CSc1nc(O)cc(=O)n1-c1ccccc1F` the Potency was inconclusive: 79.4 µM [inhibitor, single point].
In the case of `Cc1ccc2c(c1)c1c(n2CC(O)Cn2nc(C)c(Br)c2C)CCCC1` (stereo unspecified), the activity, negative = inhibition is reported as inactive: 5.08% [at 12.7 µM].
With `Cc1ccc(COC(=O)CCN=C2NS(=O)(=O)c3ccccc32)cc1` the Potency was inconclusive: 50.1 µM [inhibitor, partial curve].
In the case of `CCOc1ccc(NC(=O)CC2C(=O)N(c3ccc(OCC)cc3)C(=S)N2C2CC2)cc1` (stereo unspecified), the Potency is reported as inconclusive: 56.2 µM [inhibitor, single point].
With `Cc1cc(C(=O)N/N=C/c2ccc(Br)o2)n[nH]1` the Potency was “inactive”.
For `CCC(OCC(O)CN1CCN(CCN2C(=O)c3cccc4cccc(c34)C2=O)CC1)c1ccccc1` (stereo unspecified), the Potency was inconclusive: 35.5 µM [inhibitor, single point].
`Cc1c(-c2cc[n+]([O-])cc2)oc2ccc(Br)cc2c1=O` was tested, and the Potency was “inactive”.
With `COc1ccc2nc3sc(C(=O)N4CCN(c5ccccc5)CC4)cc3cc2c1` the Potency was “inactive”.
In the case of `COc1ccc(CCNC(=O)CCn2c(=O)c3ccccc3n(Cc3c(C)cc(C)cc3C)c2=O)cc1OC`, the Potency is reported as inconclusive: 0.891 µM [inhibitor, full curve, poor fit].
For `Oc1c(C(c2ccc(Br)cc2)N2CCOCC2)sc2nc(-c3ccco3)nn12` (stereo unspecified), the Potency was inconclusive: 31.6 µM [inhibitor, single point].
For `Cc1ccc2cccc(S(=O)(=O)Nc3ccc4c(c3)OCO4)c2n1`, the Potency was inconclusive: 8.91 µM [inhibitor, partial curve].
For `O=C(CN1CCN(C(=O)CNC(=O)c2ccc(N3CCCC3=O)cc2)CC1)Nc1ccccc1Cl`, the activity, negative = inhibition was inactive: -15.6% [at 12.7 µM].
In the case of `O=C1NC(c2ccc(-c3ccccc3[N+](=O)[O-])o2)C(C(=O)c2ccc(Cl)cc2)C(O)(C(F)(F)F)N1` (stereo unspecified), the Potency is reported as inconclusive: 22.4 µM [inhibitor, single point].
With `COc1cc(C2/C(=C(\O)c3ccc4c(c3)CC(C)O4)C(=O)C(=O)N2Cc2ccco2)ccc1O` (stereo unspecified) the Potency was inconclusive: 89.1 µM [inhibitor, single point].
In the case of `O=C(NCc1ccco1)c1c[nH]c2ccc(S(=O)(=O)Nc3ccc(F)cc3F)cc2c1=O`, the Potency is reported as inconclusive: 25.1 µM [inhibitor, partial curve, poor fit].
In the case of `COc1ccc(OC)c(CCNC(=O)CCn2ccc3cc(S(=O)(=O)N4CCCC4)ccc32)c1`, the Potency is reported as “inactive”.
With `CC(C)(C)NC(=O)C(c1ccc(F)cc1)N(Cc1ccco1)C(=O)CCC(=O)Nc1ccccn1` (stereo unspecified) the Potency was “inactive”.
In the case of `O=C(/C=N/O)NCCCn1ccnc1`, the Potency is reported as inconclusive: 63.1 µM [inhibitor, single point].
With `COc1ccc(CNC(=S)Nc2ccccc2-c2ccccc2)cc1` the Potency was inconclusive: 89.1 µM [inhibitor, single point].
`CN(C)c1ccc(C(CNC(=O)c2ccccc2F)N2CCc3ccccc32)cc1` (stereo unspecified) was tested, and the Potency was inconclusive: 5.01 µM [inhibitor, single point].

From PubChem BioAssay AID504332 (National Center for Advancing Translational Sciences (NCATS), 2011)
% is scaled to controls: 0 for no effect and ±100 for the full control effect; potency is read from the fitted curve at half-maximal effect; tags tell the direction and shape of the fitted curve.
Also: nearly all actives have a fitted effect of over 75% in size.
